This passage reports cell count results from the supplement of paper PMC4604168 (melanoma cell lines).

The list shows a part of the results. Repeats are few or missing, and single values can be far off.
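Note: cell number obtained by counting DAPI-stained nuclei in high-throughput microscope images with image analysis software, screen run in 1,536-well plates.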

One experiment concerns COLO800. Kind of experiment: cell count relative to DMSO control; melanoma cells; higher = more viable cells. The following applies: library dose: low library concentration; 72 h.
As to `C#Cc1cccc(Nc2ncnc3cc(OCCOC)c(OCCOC)cc23)c1` [erlotinib] + Cn1c(Nc2ccc(C(F)(F)F)cc2)nc2cc(Oc3ccnc(-c4ncc(C(F)(F)F)[nH]4)c3)ccc21 [CHIR265] (first compound 0.8 µM, partner dose 0.08 µM), the cell count worked out at 105%.

Consider `Clc1ccc(Nc2nnc(Cc3ccncc3)c3ccccc23)cc1` [vatalanib] + C#Cc1cccc(Nc2ncnc3cc(OCCOC)c(OCCOC)cc23)c1 [erlotinib] (first compound 2 µM, partner dose 0.8 µM), for which the cell count was 78.6%.

Turning to `OCc1c[nH]c2ccccc12` [Indole-3-carbinol] + Nc1cccc2c1CN(C1CCC(=O)NC1=O)C2=O [lenalidomide] (first compound 0.8 µM, partner dose 1 µM), the cell count turned out to be 137%.

For the molecule `Clc1ccc(Nc2nnc(Cc3ccncc3)c3ccccc23)cc1` [vatalanib] + Cn1c(Nc2ccc(C(F)(F)F)cc2)nc2cc(Oc3ccnc(-c4ncc(C(F)(F)F)[nH]4)c3)ccc21 [CHIR265] (first compound 2 µM, partner dose 0.08 µM), the cell count stood at 84.1%.

`Cn1c(Nc2ccc(C(F)(F)F)cc2)nc2cc(Oc3ccnc(-c4ncc(C(F)(F)F)[nH]4)c3)ccc21` + C[C@]1(c2nc3c(C(N)=O)cccc3[nH]2)CCCN1 [Veliparib] (first compound 0.08 µM, partner dose 1.4 µM) yielded a cell count of 96.5%.

`OCc1c[nH]c2ccccc12` [Indole-3-carbinol] + Cc1nc(Nc2ncc(C(=O)Nc3c(C)cccc3Cl)s2)cc(N2CCN(CCO)CC2)n1 [dasatanib] (first compound 0.8 µM, partner dose 0.004 µM) returned a cell count of 80.3%.

Take `Cn1c(Nc2ccc(C(F)(F)F)cc2)nc2cc(Oc3ccnc(-c4ncc(C(F)(F)F)[nH]4)c3)ccc21` + COCC[n+]1c2c(n(Cc3cnccn3)c1C)C(=O)c1ccccc1C2=O [YM155] (first compound 0.08 µM, partner dose 0.0004 µM): the cell count was 52%.

For `Clc1ccc(Nc2nnc(Cc3ccncc3)c3ccccc23)cc1` [vatalanib] + C=CCn1c(=O)c2cnc(Nc3ccc(N4CCN(C)CC4)cc3)nc2n1-c1cccc(C(C)(C)O)n1 [MK1775] (first compound 2 µM, partner dose 0.02 µM), the cell count amounted to 82.2%.

For the molecule `Clc1ccc(Nc2nnc(Cc3ccncc3)c3ccccc23)cc1` [vatalanib] + Nc1cccc2c1CN(C1CCC(=O)NC1=O)C2=O [lenalidomide] (first compound 2 µM, partner dose 1 µM), the cell count was 103%.

Another experiment relates to COLO829. The description is as above. The following applies: library dose: low library concentration; 72 h.
In turn, `OCc1c[nH]c2ccccc12` [Indole-3-carbinol] + COCC[n+]1c2c(n(Cc3cnccn3)c1C)C(=O)c1ccccc1C2=O [YM155] (first compound 0.8 µM, partner dose 0.0004 µM) gave a cell count of 139%.

Regarding `OCc1c[nH]c2ccccc12` [Indole-3-carbinol] + C[C@]1(c2nc3c(C(N)=O)cccc3[nH]2)CCCN1 [Veliparib] (first compound 0.8 µM, partner dose 1.4 µM), the cell count was 98.9%.

Take `OCc1c[nH]c2ccccc12` [Indole-3-carbinol] + C#Cc1cccc(Nc2ncnc3cc(OCCOC)c(OCCOC)cc23)c1 [erlotinib] (first compound 0.8 µM, partner dose 0.8 µM): the cell count is 82.5%.

In turn, `C#Cc1cccc(Nc2ncnc3cc(OCCOC)c(OCCOC)cc23)c1` [erlotinib] + Cn1nnc2c(C(N)=O)ncn2c1=O [temozolomide] (first compound 0.8 µM, partner dose 2 µM) gave a cell count of 98.2%.

Turning to `C#Cc1cccc(Nc2ncnc3cc(OCCOC)c(OCCOC)cc23)c1` [erlotinib] + Cc1nc(Nc2ncc(C(=O)Nc3c(C)cccc3Cl)s2)cc(N2CCN(CCO)CC2)n1 [dasatanib] (first compound 0.8 µM, partner dose 0.004 µM), the cell count is 70.1%.

For the molecule `Cn1c(Nc2ccc(C(F)(F)F)cc2)nc2cc(Oc3ccnc(-c4ncc(C(F)(F)F)[nH]4)c3)ccc21` + Cn1nnc2c(C(N)=O)ncn2c1=O [temozolomide] (first compound 0.08 µM, partner dose 2 µM), the cell count was found to be 80.8%.

With `COCC[n+]1c2c(n(Cc3cnccn3)c1C)C(=O)c1ccccc1C2=O` + C[C@]1(c2nc3c(C(N)=O)cccc3[nH]2)CCCN1 [Veliparib] (first compound 0.0004 µM, partner dose 1.4 µM), the cell count stood at 79.5%.

In the case of `OCc1c[nH]c2ccccc12` [Indole-3-carbinol] + COc1cc(Nc2ncc(F)c(Nc3ccc4c(n3)NC(=O)C(C)(C)O4)n2)cc(OC)c1OC [Tamatinib] (first compound 0.8 µM, partner dose 0.4 µM), the cell count was 71.9%.

As to `Clc1ccc(Nc2nnc(Cc3ccncc3)c3ccccc23)cc1` [vatalanib] + C[C@@H]1CCN(C(=O)CC#N)C[C@@H]1N(C)c1ncnc2[nH]ccc12 [CP690550] (first compound 2 µM, partner dose 1 µM), the cell count came out at 102%.

Take `C#Cc1cccc(Nc2ncnc3cc(OCCOC)c(OCCOC)cc23)c1` [erlotinib] + COCC[n+]1c2c(n(Cc3cnccn3)c1C)C(=O)c1ccccc1C2=O [YM155] (first compound 0.8 µM, partner dose 0.0004 µM): the cell count was determined as 111%.

The molecule `Clc1ccc(Nc2nnc(Cc3ccncc3)c3ccccc23)cc1` [vatalanib] + COCC[n+]1c2c(n(Cc3cnccn3)c1C)C(=O)c1ccccc1C2=O [YM155] (first compound 2 µM, partner dose 0.0004 µM) yielded a cell count of 57%.

`OCc1c[nH]c2ccccc12` [Indole-3-carbinol] + COc1ccc(Cl)c(Nc2nc3ccccc3nc2NS(=O)(=O)c2cccc(NC(=O)C(C)(C)N)c2)c1 [XL147] (first compound 0.8 µM, partner dose 0.8 µM): the cell count was found to be 107%.

For the molecule `Nc1cccc2c1CN(C1CCC(=O)NC1=O)C2=O` (stereo not given) [lenalidomide] + C[C@]1(c2nc3c(C(N)=O)cccc3[nH]2)CCCN1 [Veliparib] (first compound 1 µM, partner dose 1.4 µM), the cell count worked out at 81.2%.

The molecule `COCC[n+]1c2c(n(Cc3cnccn3)c1C)C(=O)c1ccccc1C2=O` + O=C(CCCCCCC(=O)Nc1ccccc1)NO [vorinostat] (first compound 0.0004 µM, partner dose 0.08 µM) displayed a cell count of 92.6%.

`OCc1c[nH]c2ccccc12` [Indole-3-carbinol] + Cn1c(Nc2ccc(C(F)(F)F)cc2)nc2cc(Oc3ccnc(-c4ncc(C(F)(F)F)[nH]4)c3)ccc21 [CHIR265] (first compound 0.8 µM, partner dose 0.08 µM) displayed a cell count of 115%.

`COCC[n+]1c2c(n(Cc3cnccn3)c1C)C(=O)c1ccccc1C2=O` + Nc1cccc2c1CN(C1CCC(=O)NC1=O)C2=O [lenalidomide] (first compound 0.0004 µM, partner dose 1 µM) registered a cell count of 82.5%.

With `COCC[n+]1c2c(n(Cc3cnccn3)c1C)C(=O)c1ccccc1C2=O` + Cn1nnc2c(C(N)=O)ncn2c1=O [temozolomide] (first compound 0.0004 µM, partner dose 2 µM), the cell count was 77.9%.

Turning to `Clc1ccc(Nc2nnc(Cc3ccncc3)c3ccccc23)cc1` [vatalanib] + COc1ccc(Cl)c(Nc2nc3ccccc3nc2NS(=O)(=O)c2cccc(NC(=O)C(C)(C)N)c2)c1 [XL147] (first compound 2 µM, partner dose 0.8 µM), the cell count turned out to be 110%.

With `Cn1c(Nc2ccc(C(F)(F)F)cc2)nc2cc(Oc3ccnc(-c4ncc(C(F)(F)F)[nH]4)c3)ccc21` + C[C@@H]1CCN(C(=O)CC#N)C[C@@H]1N(C)c1ncnc2[nH]ccc12 [CP690550] (first compound 0.08 µM, partner dose 1 µM), the cell count stood at 97.2%.

For `Clc1ccc(Nc2nnc(Cc3ccncc3)c3ccccc23)cc1` [vatalanib] + Cc1nc(Nc2ncc(C(=O)Nc3c(C)cccc3Cl)s2)cc(N2CCN(CCO)CC2)n1 [dasatanib] (first compound 2 µM, partner dose 0.004 µM), the cell count turned out to be 78.5%.

As to `C#Cc1cccc(Nc2ncnc3cc(OCCOC)c(OCCOC)cc23)c1` [erlotinib] + Nc1cccc2c1CN(C1CCC(=O)NC1=O)C2=O [lenalidomide] (first compound 0.8 µM, partner dose 1 µM), the cell count turned out to be 94%.

In turn, `Clc1ccc(Nc2nnc(Cc3ccncc3)c3ccccc23)cc1` [vatalanib] + Cn1nnc2c(C(N)=O)ncn2c1=O [temozolomide] (first compound 2 µM, partner dose 2 µM) had a cell count of 84.2%.

`Clc1ccc(Nc2nnc(Cc3ccncc3)c3ccccc23)cc1` [vatalanib] + C[C@]1(c2nc3c(C(N)=O)cccc3[nH]2)CCCN1 [Veliparib] (first compound 2 µM, partner dose 1.4 µM) had a cell count of 79.2%.

For the molecule `C#Cc1cccc(Nc2ncnc3cc(OCCOC)c(OCCOC)cc23)c1` [erlotinib] + C[C@]1(c2nc3c(C(N)=O)cccc3[nH]2)CCCN1 [Veliparib] (first compound 0.8 µM, partner dose 1.4 µM), the cell count was determined as 73.8%.

Turning to `OCc1c[nH]c2ccccc12` [Indole-3-carbinol] + Cn1nnc2c(C(N)=O)ncn2c1=O [temozolomide] (first compound 0.8 µM, partner dose 2 µM), the cell count was found to be 90.6%.

For `Cn1c(Nc2ccc(C(F)(F)F)cc2)nc2cc(Oc3ccnc(-c4ncc(C(F)(F)F)[nH]4)c3)ccc21` + Nc1cccc2c1CN(C1CCC(=O)NC1=O)C2=O [lenalidomide] (first compound 0.08 µM, partner dose 1 µM), the cell count is 77%.
